# Measured values published in PubChem BioAssay AID361 (National Center for Advancing Translational Sciences (NCATS), 2006).
# The campaign covered roughly 51,000 compounds. About 600 (1.2%) were called active. The inconclusive results got no clear call from the source; some entries with a clear call stand among them for comparison. Rule as the data show it: active = potency below about 11 µM; inconclusive = mostly about 12 µM to 25 µM; inactive = weaker than that;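 the screen sought inhibitors and activators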. Potencies of inconclusive entries are left out as doubtful fits.
# System: pyruvate kinase (Bacillus stearothermophilus)
# Assay: Pyruvate Kinase
# Conditions: purified pyruvate kinase, luminescence ATP production; ribose 5-phosphate activator present at AC10
# Summary of the method: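 Partially purified B. stearothermophilus pyruvate kinase (10 nM final) with 2 mM PEP, 0.1 mM ADP and 0.7 nM ribose 5 phosphate in 50 mM imidazole pH 7.2, KCl, MgCl2; 2 h at room temperature, ATP formed read by luciferase luminescence.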
# Potency is read from the fitted curve at half-maximal effect.
row,SMILES,Potency
1,COc1ccccc1CNC(=O)CCn1c(=O)sc2ccccc21,inconclusive [increasing]
2,O=C(Nc1ccccc1)N(O)c1ccc(Cl)cc1,inconclusive [decreasing]
3,Cc1cc(NC(=O)COC(=O)C2CCN(C(=O)c3ccc(Cl)cc3)CC2)no1,inconclusive [increasing]
4,Cc1ccc2cc3cc(C(=O)NCCCN4CCc5ccccc5C4)oc3nc2c1,inconclusive [decreasing]
5,CSc1nc2sc3c(c2c2nncn12)CCC3,inconclusive [decreasing]
6,COc1ccccc1N1CCN(S(=O)(=O)c2ccccc2)CC1,inconclusive [increasing]
7,CCCCC(=O)NC(Nc1cc(C)ccn1)(C(=O)OCC)C(F)(F)F (stereo unspecified),inactive: > 57 µM
8,Cc1ccc(-c2nc(-c3cccnc3)no2)cc1,inconclusive [decreasing]
9,Cc1cccn2cc(-c3ccccc3)nc12,inconclusive [decreasing]
10,Cc1cccc(C)c1-n1nnnc1S(=O)(=O)Cc1ccccc1Cl,inconclusive [increasing]
11,CC(=O)Nc1ccc(S(=O)(=O)N2CCCN(S(=O)(=O)c3ccc(C)cc3)CC2)cc1,inconclusive [increasing]
12,COc1ccccc1N1CCN(C(=O)CSc2ccc3c(C)cc(C)nc3n2)CC1,inconclusive [increasing]
13,Nc1nc(Cl)nc2c1ncn2[C@@H]1O[C@H](CO)[C@@H](O)[C@H]1O,inactive: > 25.6 µM
14,Cc1ccc(-c2nnn(CC(=O)N(CC(=O)NCc3ccccc3)c3cccc(C)c3C)n2)o1,active: 4.38 µM
15,CN(Cc1ccccc1)c1ncnc2c1cnn2-c1ccccc1,inconclusive [decreasing]
16,CCOC(=O)Cn1cnc2c(cnn2-c2ccc(Cl)cc2)c1=O,inconclusive [decreasing]
17,O=C1CCCc2nc(N3CCc4ccccc43)ncc21,inconclusive [decreasing]
18,COc1cc(OC)cc(C(=O)N2CCC(n3c(C)nc4cc(F)ccc43)CC2)c1,inactive: > 57 µM
19,CC1(C)c2ccccc2N2CCC(=O)NC21/C=C/c1ccco1 (stereo unspecified),inactive: > 57 µM
20,O=c1cc(-c2cccc3ccccc23)[nH][nH]1,inconclusive [increasing]
21,COc1cccc(N2CCN(Cc3nc(N)nc(Nc4ccccc4OC)n3)CC2)c1,inactive: > 57 µM

row,SMILES,Potency
1,Cc1ccc(S(=O)(=O)Cn2nnnc2C(C(C)C)N2CCc3ccccc3C2)cc1 (stereo unspecified),inconclusive [increasing]
2,O=C(C1CCCN1S(=O)(=O)c1ccc(Cl)c(Cl)c1)N1CCOCC1 (stereo unspecified),inconclusive [increasing]
3,Cc1ccccc1SCC(=O)NC1CCOC1=O (stereo unspecified),inconclusive [increasing]
4,Cc1nnc(NC(=O)C2CCN(c3nnnn3-c3ccccc3)CC2)s1,inactive: > 57 µM
5,CCCn1c(NCc2cc(OC)ccc2OC)nc2ccccc21,inconclusive [increasing]
6,COc1cccc(-c2ccc(-c3noc(-c4ccccc4F)n3)c(OC)n2)c1,inactive: > 57 µM
7,COc1ccccc1-n1cc(C(=O)NCC(=O)N2CCN(c3ccccn3)CC2)c2ccccc2c1=O,inconclusive [decreasing]
8,O=C(NCCn1cccc1)c1cccc2ccccc12,inconclusive [increasing]
9,COc1ccccc1-c1nn2c(-c3ccco3)nnc2s1,active: 8.25 µM
10,COC(=O)[C@@H](NC(=O)NC1CCCc2ccccc21)C(C)C (stereo partly specified),inconclusive [increasing]
11,NC(=O)c1ccccc1N/C=C/C(=O)c1ccco1,inconclusive [decreasing]
12,COc1ccc(/C=N/n2c(N)nc3ccccc32)cc1OC,active: 8.38 µM
13,CN(CCC#N)C(=O)CSc1ncnc2sc(-c3ccccc3)cc12,inconclusive [decreasing]
14,CCn1cc(C(=O)NCc2ccc3c(c2)OCO3)c(=O)c2cc(F)c(N3CCN(C)CC3)cc21,inconclusive [increasing]
15,CCc1cc(=O)oc2cc(C)c(CN3CCCC(C)C3)c(O)c12 (stereo unspecified),inactive: > 25.6 µM
16,O=c1sc(Nc2ccccc2)nc2ccsc12,inconclusive [decreasing]
17,CCN(CC)CCNC(=O)c1c(O)c2cc(OC)c(OC)cc2[nH]c1=O,inactive: > 57 µM
18,COc1ccccc1-c1noc(-c2ccncc2)n1,inconclusive [decreasing]
19,CCc1nc(N(CC)CC)c2oc3ccccc3c2n1,inactive: > 57 µM
20,O=C(Nc1ncccn1)c1cccs1,inactive: > 57 µM
21,COc1cc(NC(=O)c2cc3sccc3n2C)cc(OC)c1,active: 4.03 µM

row,SMILES,Potency
1,CC(=O)Nc1cccc(NC(=O)c2cc3ccccc3o2)c1,inconclusive [decreasing]
2,Cc1cc(C)c2c(CN3CCN(Cc4ccc5c(c4)OCO5)CC3)cc(=O)oc2c1,inactive: > 57 µM
3,CN=c1scc(C)n1/N=C/c1ccc(O)cc1,active: 6.8 µM
4,Cc1ccc(S(=O)(=O)N2CCN(C(=O)N(C)C)CC2)cc1C,inconclusive [increasing]
5,O=S1(=O)CCC(NS(=O)(=O)c2cccc3cccnc23)C1 (stereo unspecified),inconclusive [increasing]
6,Cc1ccc2cc(C)c3nnc(SCC(=O)NCc4ccco4)n3c2c1,inconclusive [decreasing]
7,O=C(Cn1c(=O)sc2ccccc21)Nc1nc2c(s1)CCCC2,inconclusive [increasing]
8,CCOc1ccc(NC(=O)CN(C)CC(=O)NC2CCCc3ccccc32)cc1OCC (stereo unspecified),inconclusive [increasing]
9,CCn1cnc2sc(-c3ccccc3)cc2c1=O,inconclusive [decreasing]
10,O=C(Cn1c(=O)sc2ccccc21)NCCOc1ccccc1F,inconclusive [increasing]
11,O=C(c1cc2ccccc2oc1=O)N1CCN(Cc2ccc3c(c2)OCO3)CC1,inactive: > 57 µM
12,CCOc1ccc(-c2nc(C#N)c(N3CCN(C)CC3)o2)cc1,inconclusive [decreasing]
13,CC(=O)N1CCN(c2ccc(Oc3nnnn3-c3ccccc3)cc2)CC1,inconclusive [increasing]
14,Cc1nc(S(=O)(=O)N(C)Cc2ccccc2)c(C#N)c(C)c1Cl,inactive
15,O=C1c2ccccc2C(=O)N1Cc1nc(-c2ccncc2)no1,inactive: > 57 µM
16,Cc1cc(C)c(C)c(S(=O)(=O)NCc2cccnc2)c1C,inconclusive [increasing]
17,Cc1cc(NCCCn2ccnc2)n2ncc(-c3ccccc3)c2n1,active: 1.96 µM
18,COc1ccc(C2CC(c3cc(Br)ccc3F)n3nnnc3N2)cc1 (stereo unspecified),inconclusive [increasing]
19,COC(=O)c1ccccc1NC(=O)CN(C)S(=O)(=O)c1cc(C)ccc1OC,inactive: > 57 µM
20,Cc1ccc(C)c(S(=O)(=O)C(C#N)c2nc3ccccc3nc2N2CCOCC2)c1 (stereo unspecified),inactive: > 57 µM
21,CCCC12CN3CC(C)(CN(C1)C31C(=O)Nc3ccc(C)cc31)C2=O (stereo unspecified),inactive: > 57 µM

row,SMILES,Potency
1,COc1cc(-c2nc(S(=O)(=O)c3ccc(C)cc3)c(N3CCOCC3)o2)cc(OC)c1OC,inconclusive [increasing]
2,COc1cccc(C(=O)N2CCN(Cc3ccco3)CC2)c1OC,inconclusive [increasing]
3,COCCNC(=O)c1cc(-c2cccc(OC)c2)on1,inconclusive [increasing]
4,Cc1ccc(S(=O)(=O)N(CC(=O)NCc2ccco2)Cc2ccccc2F)cc1,inconclusive [increasing]
5,C=CCSC1=C(C#N)C(c2ccccc2OC)CC(=O)N1 (stereo unspecified),inconclusive [increasing]
6,C=CCn1cnc2c(c1=O)c1nc3ccccc3nc1n2/N=C/c1cccc(OC)c1OC,inconclusive [decreasing]
7,Clc1ccc(-c2nnc(-c3ccccc3)o2)c(Cl)c1,active: 2.55 µM
8,COc1ccc(Cl)cc1S(=O)(=O)N1CCN(C(=O)c2ccco2)CC1,inconclusive [increasing]
9,CCCn1nnc(NC(=O)C(C)Oc2ccc(Cl)cc2Cl)n1 (stereo unspecified),inconclusive [increasing]
10,CCN(Cc1cc2cc(OC)ccc2[nH]c1=O)C(=O)Cc1ccc(OC)cc1,inactive: > 57 µM
11,COc1ccc2c(c1)c1c(n2C(C)=O)C(OC(C)=O)=NCC1,inactive: > 57 µM
12,O=S(=O)(c1cc(Cl)ccc1Cl)N1CCCCC1,inconclusive [increasing]
13,Cc1nc2sccn2c1-c1nc(-c2cc3ccccc3o2)cs1,inconclusive [decreasing]
14,Nc1nc(-c2ccccc2)nc(-c2ccccc2O)n1,inconclusive [decreasing]
15,CC(C)Sc1nc2c(c(=O)n(C)c(=O)n2C)n1Cc1ccc(Cl)cc1,inactive: > 57 µM
16,COCCn1c(=O)[nH]c2cc(C(=O)NCCN3CCN(c4ccc(OC)cc4)CC3)ccc2c1=O,inactive: > 57 µM
17,CCOc1ccc(-n2ccnc2SCC(=O)NCc2ccc3c(c2)OCO3)cc1,inactive: > 57 µM
18,COc1cccc(-c2cnc(NCc3cc(Cl)ccc3O)n2C)c1,inactive: > 57 µM
